# In PubChem BioAssay AID588855 (National Center for Advancing Translational Sciences (NCATS), 2011):
# Screen size: about 410,000 compounds; about 5,000 (1.2%) were called active. This list was built around the results that the source calls inconclusive (neither active nor inactive); the mix of calls is not that of the screen. The call rests on the fitted dose curve; in most records, active means well fitted inhibition curve with a large enough effect; inconclusive means small, poorly fitted or top-dose-only effect; inactive means no such curve, though single readings can be large or run the other way. A potency beside an inconclusive call is a rough fit, not a confirmed value.
# Assay: qHTS for Inhibitors of TGF-b; further: nearly all actives have a fitted effect of over 65% in size
# Details: HepG2 CAGA-GFP TGF-b/SMAD3 reporter, GFP fluorescence, 18 h, TGF-beta stimulated, 500 pg/mL final; series mostly up to 46.1 µM
# Outline: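 Cell-based qHTS in HEPG2 carrying a CAGA-GFP Smad reporter; compounds added before 500 pg/mL final TGF-beta, 18 h incubation at 37 degrees C, GFP fluorescence quantified per cell by imaging cytometry.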
# Potency means the concentration at half of the fitted maximal effect; tags describe the fitted curve by direction and shape.
row,Compound,Potency
1,Cc1cc(C#Cc2c(-c3ccccc3)n(C)c3ccccc23)ccc1F,"inconclusive: 7.08 µM [inhibitor, full curve, poor fit]"
2,O=C(Nc1ccc2nc(SCC(=O)N3CCCc4ccccc43)sc2c1)c1ccccc1F,inactive
3,Cc1ccc(NC(=O)C(C)OC(=O)c2cc(=O)[nH]c3ccccc23)cc1S(=O)(=O)N1CCOCC1 (centres undefined),inactive
4,Cc1ccc(NC(=O)CCn2nc(-c3ccccc3)c3ccccc3c2=O)c(C)c1,"inconclusive: 35.5 µM [inhibitor, single point]"
5,COc1ccc(C(CNC(=O)COc2ccccc2)N2CCOCC2)cc1 (centres undefined),inactive
6,Cc1nc2ccc(C(=O)N3CCN(c4ccccc4)CC3)cn2c1N(C)C(=O)CCc1ccccc1,inactive
7,O=C(c1ccccc1)N1N=C(c2cccs2)CC1c1ccccc1O (centres undefined),"inconclusive: 22.4 µM [inhibitor, single point]"
8,COc1ccc(NS(=O)(=O)c2cccc(C(=O)NC3CCN(Cc4ccccc4)CC3)c2)cc1,"inconclusive: 35.5 µM [inhibitor, single point]"
9,Cc1cc(C)c2nc(N(CCCN(C)C)C(=O)c3ccc4c(c3)CCCC4)sc2c1,"inconclusive: 35.5 µM [inhibitor, single point]"
10,COc1ccc(C2/C=C\CN(C(=O)C3CC3)[C@H](Cc3ccccc3)C(=O)N2Cc2ccc(F)cc2)cc1 (some centres undefined),active: 10 µM
11,CC(C)(C)n1nnnc1C(c1cccs1)N1CCN(Cc2ccc3c(c2)OCO3)CC1 (centres undefined),inactive
12,O=Cc1ccc2ccc3cccnc3c2n1,"inconclusive: 25.1 µM [inhibitor, single point]"
13,Cc1csc(=O)n1CCC(=O)OCC(=O)Nc1ccc(Cl)cn1,"inconclusive: 3.55 µM [inhibitor, full curve, poor fit]"
14,NC(=O)c1nsc(C(=O)N(CC(=O)NC2CCCCC2)Cc2ccc3c(c2)OCO3)c1N,inactive
15,Cc1ccc2nc(NC(=O)CCNS(=O)(=O)c3ccc(Br)s3)sc2c1,"inconclusive: 11.2 µM [inhibitor, partial curve, poor fit]"
16,COc1ccc(N2CCN(C(=O)CCNC(=O)Cn3ccc4ccccc4c3=O)CC2)cc1,inactive
17,COc1ccc(-c2ccc([C@H]3[C@H]4C=CC[C@@H](C)[C@@H]4C(=O)N3Cc3ccccc3)c(F)c2)cc1C,inactive
18,Cc1ccc(N2C(=O)[C@@H]3C(C(=O)C(c4ccccc4)c4ccccc4)=NN[C@@H]3C2=O)cc1,"inconclusive: 0.891 µM [inhibitor, partial curve, poor fit]"
19,CC1=Nc2cc(C(=O)O)ccc2Sc2ccc(C)cc21,inactive
